# Measurements published in ChEMBL document CHEMBL4888484, “Replenishing the malaria drug discovery pipeline: Screening and hit evaluation of the MMV Hit Generation Library 1 (HGL1) against asexual blood stage Plasmodium falciparum ,using a nano luciferase reporter read-out” (2022).
# The whole screen tested about 150,000 compounds, of which about 540 (0.36%) showed an effect of 50% or more. The list shows a part of the results.
# System: Plasmodium falciparum
# Assay: Primary screen in NF54 nanoGlo assay, in single point, at 2uM, 72h; a lower Z score goes with more inhibition
# Type: functional, Erythrocyte
# Conditions: timepoint 72 hour
SMILES,% Inhibition,Z score
CS(=O)(=O)c1ccc(N)cc1Cl,5%,-0.75
COc1ccc(NC(=O)C(=O)N(C)CCN(C)c2ccccc2)cn1,6%,-0.73
CO[C@H]1CCN(C2CCN(S(=O)(=O)c3ccc(Oc4cccc(C)c4)cc3)CC2)C1,-7%,0.88
O=C(Cc1ccc(N(Cc2cccc(F)c2)C(=O)c2cccc(F)c2)cc1)NCCN1CCCCC1,57%,-2.67
Cc1cccc(NC(=O)C2CN(S(=O)(=O)C3CC3)C2)n1,-10%,1.28
Cc1cc(-c2ccc(C)c(S(=O)(=O)NCC[C@H](C)N3CCCCCC3)c2)on1,-14%,1.81
C[C@@H](Cc1ccccc1F)NC(=O)NCCNC(=O)C1CCCC1,-6%,0.7
CC(C)c1nnsc1CN1CCO[C@H](c2ccc(Cl)cc2)C1,-12%,1.5
CCc1cc(C(=O)N2CCN(C(=O)C3CCC3)[C@@H]3CS(=O)(=O)C[C@@H]32)no1,-3%,0.41
Cc1ccc2c(c1)CCCN2C(=O)CN1[C@@H]2CC[C@H]1C[C@@H](O)C2,1%,-0.12
CN(Cc1ccoc1)C(=O)[C@@H]1COCC(=O)N1Cc1ccccc1,6%,-1.01
Cc1noc(C)c1CNC(=O)c1cnc(Cc2c(Cl)cccc2Cl)nc1O,-9%,1.28
CC(C)CC(=O)N1CCC[C@H]1c1ccncc1,-5%,0.64
CC(C)CCNCC1(C(=O)N(C)C)CCCC1,-11%,1.34
Cc1cc(F)ccc1-c1cccc(C(=O)N2CC[C@@]3(O)CCNC[C@H]3C2)c1,-11%,1.81
Brc1cccc2c1cnn2CN1CCOCC1,-10%,1.25
Cc1nc2ccccc2n1CCN[C@H](C1CCOCC1)C1CC1,-3%,0.49
c1nc(CNc2ncc(C3CCOCC3)s2)cs1,-13%,1.59
COc1cc(C)c(CN2CCC(CCC(=O)N(C)Cc3ccccc3)CC2)cc1C,-10%,1.37
COc1nccc2c(NCc3c(C)nn(C)c3C)cccc12,-1%,0.12
CCCCn1c(=O)[nH]c2cc(-c3nc(-c4ccc(Cl)cc4)no3)ccc2c1=O,-3%,0.3
N#Cc1cncc(N2CCCC[C@H]2C2CCC2)n1,-22%,2.39

SMILES,% Inhibition,Z score
CN(C1(C#N)CCC1)S(=O)(=O)c1ccccc1Cl,-14%,2.52
C[C@@H](C(=O)NCCS(N)(=O)=O)c1cccc(Cl)c1,-5%,0.72
Cc1nc(-c2ccncc2)nc(NCCS(=O)(=O)NC(C)C)c1C,4%,-0.39
COc1ccc(NC(C)(C)C(=O)N2CC[C@H](N3CCCCC3)C2)cc1,-16%,1.52
O=C(Nc1nc(C(=O)NCc2cccnc2)co1)c1ccccc1,-7%,1.03
Cc1ccc(CNC(=O)NCCCCn2ccnc2C)c(C)c1,-4%,0.49
COc1ccc(C(=O)N(C)C[C@H]2CCCO2)cn1,-6%,0.54
COc1ccc(-c2nc(-c3ccccn3)nn2CCO)c(OC)c1,-9%,1.68
Cc1ncsc1CCC(=O)N1CCn2nc([C@H](C)O)cc2C1,1%,-0.21
CN(CC1CC1)c1ccc(C(F)(F)F)cc1C(=O)O,-11%,1.69
COC[C@@H]1C[C@@H](O)CN1C(=O)c1ccc(CNC(=O)c2cccs2)cc1,2%,-0.32
CCOc1ccc(-n2ncc(C(=O)Nc3cc(-n4cnnn4)ccc3C)c2C)nn1,26%,-2.99
O[C@@H](Cc1ccccc1)Cn1cnnc1,-6%,0.71
O=C(Cc1ccncc1)N1CCC2(CC1)NCCc1c2[nH]c2ccccc12,-13%,1.75
O=C(NC[C@H]1CCCO1)c1ccc(S(=O)(=O)N2Cc3ccccc3C2)cc1,-18%,1.81
COc1ccccc1N1CCN(Cc2nc(C(=O)N[C@@H](C)c3ccccc3)co2)CC1,-8%,1.53
CCN(CC)c1ncc(Cl)c(C(=O)N(C)C2CCCCCC2)n1,-2%,0.26
O=C(COc1ccccc1)NC1CCN(Cc2nnn3c2CO[C@H](c2ccccc2)C3)CC1,-16%,2.04
CN(Cc1nnc2n1CCC2)C(=O)c1ccsc1NC(=O)c1cccs1,-8%,1.29
c1ccc2[nH]c(N3CCCN(c4cc(NCC5CC5)ncn4)CC3)nc2c1,-7%,0.94
Cc1ccc(C)c(-c2nccn2[C@H]2CCNC2)c1,-5%,0.97
CCC(CC)NC(=O)COc1ccc(OC)cc1,-6%,0.8

SMILES,% Inhibition,Z score
Cc1c(C(=O)N2CCN(S(C)(=O)=O)CC2)nnn1-c1nc2c(s1)CCCC2,-13%,2.54
CCCc1nnc(N2CCC(Oc3ccccc3OC)(C(=O)O)CC2)s1,-5%,0.64
O=C(NCC[C@H]1CCOC1)c1ccc(-c2ccc3cc[nH]c(=O)c3c2)cc1,-14%,1.37
O=C(O)Cn1ccc([C@H]2CCCN(C(=O)C3(N4CCCC4)CCCC3)C2)n1,-14%,2.56
C[C@@H](CN(C)CCc1cc(F)cc(F)c1)N1CCOCC1,-15%,2.13
C[C@H]1CCc2onc(C(=O)N3CCC(N4CCCCC4)CC3)c2C1,-3%,0.52
Nc1nccc(NCc2cc3n(n2)CCN(C2CCCCC2)C3)n1,26%,-2.52
CC(c1ccc(Cl)cc1)C(C)N(C)C(=O)c1cc(C(=O)O)ccn1 (configuration not stated),-1%,0.1
Cc1ccc(Cn2cccc2C(=O)C(=O)N2CCn3c2nc2ccccc23)cc1,-2%,0.34
Cn1ccnc(Nc2ccc3c(c2)OCCO3)c1=O,-5%,0.61
CCCc1nc2cc(CCC(=O)Nc3ccc(Br)cc3)ccc2[nH]1,1%,-0.11
COCCN(Cc1ccsc1)C(=O)N[C@@H](C)Cc1ccsc1,6%,-1.09
CC(C)CC(NC(=O)C1CCCCC1C)C(=O)O (configuration not stated),3%,-0.47
Cc1cc(NC(N)=O)ccc1Br,-17%,3.26
CC(C)(C)C(=O)NC[C@H]1Cn2ccnc2CO1,-12%,1.9
Cc1ccc(OCCNS(=O)(=O)C2CCCCC2)cc1,-9%,0.93
CCOC(=O)Cc1csc(NC(=O)c2n[nH]c3c2CCC3)n1,-5%,0.62
Cc1nc(N2CCC[C@H]2C(=O)O)nc2ccccc12,-6%,0.83
CC(C)NC(=O)c1nsc(C(=O)NCc2ccncc2)c1N,-15%,1.41
Cc1cc(-c2cn3cc(C(=O)N4CCCCC4)nc3c(=O)n2C)c(C)o1,7%,-0.9
COC(=O)c1[nH]c(C)c(CN(C)C(=O)c2ccc(C(C)C)cc2)c1C,0%,0.04
Cc1cc(=O)c(C(=O)Nc2ccc(-n3ncc4ccccc43)cc2)c[nH]1,-9%,1.42

SMILES,% Inhibition,Z score
Cn1cc(-c2noc(C3(c4cccc(Cl)c4)CCOCC3)n2)cn1,-9%,1.24
CCCN(C(=O)c1cn2cccnc2n1)c1ccc(Cl)cc1,3%,-0.39
CCC1(O)CCC(NC(=O)C23CCCN2CCC3)CC1 (configuration not stated),7%,-1.01
O=C(C1CC(c2cc(F)ccc2F)=NO1)N1CCC2(CCOC2)C1 (configuration not stated),1%,-0.24
CN1CCC(NC(=O)c2n[nH]c3c2CN(C(=O)c2cc(F)ccc2F)CC3)CC1,-7%,1.14
COc1cc2cc(c1)C(=O)NCCCC(=O)N[C@H]1CN(Cc3cc(C4CC4)n[nH]3)CC[C@@H]1OCc1cccc(c1)O2,-10%,1.94
CC(C)CC1CC(C(=O)N2CCC(OCC3CCCO3)CC2)CC(=O)N1 (configuration not stated),1%,-0.12
O=C(Cc1n[nH]c(=O)c2cc(-c3ccc(F)cc3)nn12)NCCc1ccccc1,-3%,0.44
CCOc1cc(C(=O)NCC(F)(F)F)ncn1,-7%,1.41
O=C(NCCc1nc(O)cc(O)n1)[C@H]1CCOc2ccccc2C1,-9%,1.43
CCCN(CC)c1ccc(C(=O)N2CCC[C@@H]2C(=O)O)cn1,-20%,2.55
CO[C@H]1[C@@H]2CC[C@H]1CN(C(=O)Nc1c(C)cnn1Cc1cccc(C)c1)C2,-9%,1.71
CC(C)C(=O)Nc1nc2n(n1)[C@H](c1ccc(Cl)cc1)CC(=O)N2,4%,-0.55
COc1ccc(-c2cc(C(=O)N[C@H](C(=O)NCc3ccco3)C(C)C)no2)c(OC)c1,-20%,2.92
Cc1oncc1CNC(=O)c1ccccc1F,-2%,0.38
CCn1ccnc1CN(C)C1CCN(c2ncnc3sc(C)cc23)CC1,-3%,0.26
Nc1nc(-c2cc3ccccc3o2)c2cn[nH]c2n1,2%,-0.22
Cc1cc2c(NC[C@H]3CCOC(C)(C)C3)nccn2n1,13%,-1.67
O=C(O)[C@H]1CCN(C(=O)C2(Cc3ccccc3)CCC2)C1,-5%,0.76
O=C(NCCc1ccccn1)c1ccc(OCc2ccccc2)cc1,-3%,0.39
